Some of the results follow.
Test system: PfSIP2 AP2 domain 1 (GST-tagged)
Test: gcPBM binding intensity (ln(normalized median fluorescence intensity)); higher = stronger DNA binding
Summary of the method: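 Each value is the highest Masliner-normalised natural-log median intensity across replicate spots of either orientation of a probe. The probes were primer-extended double-stranded 36-bp intergenic genomic sequences on an Agilent 4 × 180k array, alongside negative controls, exposed for 1 h to GST-tagged P. falciparum DNA-binding domains expressed in E. coli. Bound protein was picked up with Alexa488 anti-GST antibody and scanned at 488 nm.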

Sequence | gcPBM binding intensity (ln)
ATATGTATTAAGTGTACACATATAATGGGTTTTCTT [CACACA_site5328] | 7.09
TATATACTATATATATGTACACAAAATTATTTTGAA [XGTACX_site8232] | 7.34
ATATGTAGTGTTATTTGTTCATTGTTTTAATTTTTA [CACACA_negctrl_site1394] | 6.91
TAATTATATAAATACACACACATACACCCAAATAAA [CACACA_site5819] | 7.41
AACATCAAAATATGCACACAAACAATTAGCGGTAGT [CACACA_site2521] | 8.16
GATTTACATTTTGATGAAAATAATAAAATGTGGAAA [TGCATGCA_negctrl_site409] | 6.95
ATATTTTATTTTTAAAGTACAAAAGAAAAGAATAAT [XGTACX_site8247] | 7.25
AAAAAAAAAGACAAAAGTACAAAGGTTCATAATTTA [XGTACX_site3978] | 6.89
CTTATATTTGGACACACACACAATAAAATGAAAAAA [CACACA_site6614] | 7.39
TACACAAGAAAATTCACACACACACCGATATATATA [CACACA_site6008] | 7.41
AAATCTTCATAATAAAGTACTTAACTCTTGGTGTTA [XGTACX_site6112] | 6.79
AATAAATGGAAAAGGTGTACACAAAAAAAAGGGAAA [XGTACX_site4956] | 7.15
AAAAAAAAAAAAAAAACATGCAGTTAGTGGTTTTTT [TGCATGCA_site243] | 7.51
GAAATGGGTAAACATACACACACACCGATATATATA [CACACA_site8610] | 7.48
TAACAATTATGCTGGTGTACGTTTGAAATTGGGTAT [XGTACX_site6846] | 7.49
AAAAATTTCTATTTTTGTACTTACTTTTTAGTAATA [XGTACX_site5236] | 6.9
AAAAAACAAAAAAATACACACATAAAAAGGTTTTAG [CACACA_site3584] | 6.93
AAATATGTCAAATATACACACATAATAAATATAATA [CACACA_site2310] | 7.12
TTATAAGATGATTATAAAATCAAATTCATTCTTTTA [CACACA_negctrl_site1338] | 6.49
TAAACATAACAAAGGAGTACAAAACTTGATCAGTTC [XGTACX_site3114] | 6.74
TATGTATAAAAATAATGTACAAAATATATTATATGT [XGTACX_site2794] | 7.12
ATCTTAGTTGAAATATAGAATTTATAATAAAAGTTA [GTGCAC_negctrl_site122] | 6.87
ATACTATAATAATACACACTCATTAGATATATAAAG [CACACA_site7787] | 7.13

Sequence | gcPBM binding intensity (ln)
TGTACAAATATGTACACACACACATATTTATTTATA [CACACA_site6419] | 7.13
ATAGAATATTTTATTACACACAGAATAATAAAAAAT [CACACA_site6190] | 6.79
CTAAAAGGATGATGAATGCACTATTATTTATATGGA | 8.41
TTATTTTTTTTAGCATATACAAATATATATATATAT [GTGCAC_negctrl_site4] | 9.34
AAGAATTATTTTTTATGTACTTATATGTCAATTTTC [XGTACX_site6676] | 6.99
TATATAATATATTTATGTACGTATTTAAAAATTTAT [XGTACX_site160] | 7.1
TGTATTTATTAATGTACACACATGCGTATGTTCGTT [CACACA_site5892] | 7.15
GAAGGAAATAAATCAACACACATATATTATATATAT [CACACA_site2188] | 7.8
TTGTGTGAGCAAGTAGTGCATAATATAAATAAAAAA [GTGCAC_site9802] | 9.49
TGAAATTTGTTATATGCATGTAAAATATTACGACGA [TGCATGCA_site201] | 7
CATAAATATTTGTGTTGTACAAATATATATATTTAT [XGTACX_site7363] | 6.99
AAAATTGAAGGTAGAAGTACATATTTATTTCAATAA [XGTACX_site8732] | 6.76
TTATGAATACTTCAAGTGCATTTATTTTATATGACA | 7.86
ATTGTGGATATTCTTACACACAAATTTATATATAAA [CACACA_site2601] | 6.79
ATATTCTAAATAAAGGGTACACAAAAATAATTAAAG [XGTACX_site5529] | 7.49
TATTTGTAATATTATACACACATTATGTATTACAAA [CACACA_site3386] | 7
TTTTGTATATTATATGTACACACAATAAGTTAATAT [CACACA_site8207] | 7.13
TATGAACTTTTGGGGGTGCCTTAAAATGTATATTCT | 8.27
ATATATATATAAAGCAGTACACACATTTATTTTAGA [XGTACX_site7226] | 8.8
TATCAAAGTAGAAGAGATCGATGTCATATTGTGATG [GTGCAC_negctrl_site42] | 7.05
TCCCAATTTATTATGTGTACTTATTATATACATATA [XGTACX_site4033] | 7.16
CACAGACACGGACACACACACATATATATATATATA [CACACA_site5248] | 9.5
